Laboratory results published in PubChem BioAssay AID624417 (National Center for Advancing Translational Sciences (NCATS), 2012).
Where “and” joins values, the source holds several entries; their conditions need not be identical. Equal values may be shown once. The whole screen tested about 410,000 compounds, of which about 6,400 (1.6%) were called active. Inconclusive results, whose numbers are uncertain, are shown with a selection of clear calls. The call rests on the fitted dose curve; in most records, active means well fitted inhibition curve with a large enough effect; inconclusive means small, poorly fitted or top-dose-only effect; inactive means no such curve, though single readings can be large or run the other way. Potencies of inconclusive entries are doubtful fits and often do not repeat.
Further: nearly all actives have a fitted effect of over 55% in size.
On the % scale 0 is the no-effect control and ±100 the full control effect; potency means the concentration at half of the fitted maximal effect; tags describe the fitted curve by direction and shape.

Each compound was assayed against Glucagon-like peptide 1 receptor (Homo sapiens) (UniProt P43220) (assay: qHTS of GLP-1 Receptor Inverse Agonists (Inhibition Mode)). Settings: HEK293 GLP-1R CRE-luciferase, luminescence, 24 h, GLP-1R form is constitutively active; activity change, negative = inhibition: at 38.3 µM (top of the series) unless noted.
Sequence of UniProt P43220 (P43220 whole entry, looked up): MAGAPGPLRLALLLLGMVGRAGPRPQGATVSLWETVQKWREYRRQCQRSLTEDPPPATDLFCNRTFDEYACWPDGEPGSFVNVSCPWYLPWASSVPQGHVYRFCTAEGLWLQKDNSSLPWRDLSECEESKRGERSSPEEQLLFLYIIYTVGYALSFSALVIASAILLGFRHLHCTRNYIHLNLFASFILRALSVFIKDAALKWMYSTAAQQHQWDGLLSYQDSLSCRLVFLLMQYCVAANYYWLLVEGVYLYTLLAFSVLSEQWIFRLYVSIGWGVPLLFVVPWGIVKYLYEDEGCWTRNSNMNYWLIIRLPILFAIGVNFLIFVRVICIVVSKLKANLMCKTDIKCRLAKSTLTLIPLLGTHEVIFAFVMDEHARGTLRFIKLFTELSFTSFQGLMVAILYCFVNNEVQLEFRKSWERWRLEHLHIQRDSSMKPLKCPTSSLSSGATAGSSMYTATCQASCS
Method in brief: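 GLP-1R inverse agonism mode: basal reporter luminescence in engineered HEK293 cells measured after one day of compound exposure at 37 deg C, with a 12 min room-temperature detection step.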
For `COC(=O)C1CN(C(=O)C(C)Oc2cc(C)ccc2C(C)C)c2ccccc2O1` (configuration not stated), the activity change, negative = inhibition was inconclusive: -63.8% [inhibitor].
For `O=C(CN1CCCCCC1)NC(c1ccccc1)c1ccccc1`, the Potency was inconclusive: 12.6 µM [inhibitor, single point].
In the case of `COc1ccc(Nc2ncc(C(=O)N3CCN(c4ccccc4OC)CC3)c3ccccc23)cc1`, the Potency was inconclusive: 10 µM [inhibitor, single point] and inconclusive: 10 µM [inhibitor, partial curve, poor fit].
`CCCCn1c(SCc2ncc(-c3ccccc3)o2)nc2cc(S(N)(=O)=O)ccc21` was tested, and the Potency was inconclusive: 20 µM [inhibitor, single point].
`Cc1ccc(S(=O)(=O)Nc2ccc(NC(=O)CN3CCCCC3)cc2)cc1` was tested, and the Potency was inconclusive: 11.2 µM [inhibitor, partial curve, poor fit].
`O=S(=O)(c1cnc(Cl)c(Br)c1)N1CCc2ccccc21` was tested, and the Potency was “inactive”.
`COc1cc2ccccc2cc1C(=O)NCC(c1cccs1)N(C)C` (configuration not stated) was tested, and the Potency was inconclusive: 28.2 µM [inhibitor, single point].
`Cc1ccc(Cl)cc1NC(=O)CSCc1cnn(-c2ccccc2)c1-n1cccc1` was tested, and the Potency was active: 10 µM.
`CC(Cc1cccs1)NC(=O)c1cccc(Cl)c1` (configuration not stated) was tested, and the Potency was inconclusive: 22.4 µM [inhibitor, single point].
In the case of `S=C(NCc1ccccc1)N/N=C/c1cccs1`, the Potency was inconclusive: 3.16 µM [inhibitor, partial curve, poor fit].
In the case of `CCN(CC(=O)NCCc1ccc(S(N)(=O)=O)cc1)Cc1nc2ccccc2c(=O)[nH]1`, the Potency was “inactive”.
In the case of `Cc1cc(C)nc(NC(=O)c2cc(-c3ccc(C)s3)nc3ccccc23)c1`, the Potency was inconclusive: 6.31 µM [inhibitor, partial curve, poor fit].
In the case of `COc1cc(OC)c(OC)cc1/C=N/n1c(-c2n[nH]c3c2CCC3)n[nH]c1=S`, the Potency was “inactive”.
In the case of `Cc1nnc(SCC(=O)c2ccc(C(C)C)cc2)s1`, the Potency was inconclusive: 10 µM [inhibitor, partial curve, poor fit].
For `Cc1csc(SC(C)C(=O)Nc2ccc(Cl)cn2)n1` (configuration not stated), the Potency was inconclusive: 25.1 µM [inhibitor, single point].
In the case of `CCc1ccc(N(CC)C(=O)c2sc3nc4n(c(=O)c3c2C)CCCC4)cc1`, the Potency was inconclusive: 8.91 µM [inhibitor, single point].
In the case of `CSCCC(NS(=O)(=O)c1ccc(Cl)cc1)C(=O)OCC(=O)NC12CC3CC(CC(C3)C1)C2` (configuration not stated), the Potency was inconclusive: 12.6 µM [inhibitor, partial curve, poor fit].
With `COc1ccc(-c2noc(CCC(=O)NCCCN3CCC(Cc4ccccc4)CC3)n2)cc1` the Potency was inconclusive: 2.82 µM [inhibitor, partial curve, poor fit].
`C(=N\Nc1nncc2ccccc12)/c1ccccn1` was tested, and the Potency was inconclusive: 5.01 µM [inhibitor, full curve, poor fit].
With `COc1cccc(/C=C2\SC(=O)N(CC(=O)NCCCn3ccnc3)C2=O)c1` the Potency was inconclusive: 17.8 µM [inhibitor, partial curve, poor fit].
With `CCOC(=O)C1CCN(C(=O)CSc2cc(=O)n(CC)c3ccccc23)CC1` the Potency was “inactive”.
For `CCOC(=O)C1(C(=O)OCC)COC(=O)C1CN1Cc2cc3ccccc3nc2C1` (configuration not stated), the Potency was inconclusive: 28.2 µM [inhibitor, single point].
With `CC(C)C(O)(CC#CCN1CCCC1)c1ccccc1` (configuration not stated) the Potency was inconclusive: 1.41 µM [inhibitor, full curve, poor fit].
With `CCOc1ccc(CCNC(=O)c2ccc(-c3nc(CSc4ccccc4)c(C)o3)cc2)cc1` the Potency was “inactive”.
In the case of `O=C(CCNC(=O)c1ccccc1Cl)Nc1nc(-c2ccc(F)cc2)cs1`, the Potency was “inactive”.
`O=C(N/N=C/c1ccc(O)c2ncccc12)c1cccc(Br)c1` was tested, and the Potency was inconclusive: 28.2 µM [inhibitor, single point].
In the case of `CCn1nc(C)cc1-c1nnc(Sc2ncc([N+](=O)[O-])s2)n1C`, the Potency was inconclusive: 20 µM [inhibitor, single point].
In the case of `Cc1ccc(OCc2nnc(SCC(=O)c3ccccc3)n2Cc2ccco2)cc1`, the Potency was inconclusive: 28.2 µM [inhibitor, single point].
In the case of `Cc1cc2n(n1)C(c1c[nH]c3ccccc13)Nc1ccccc1-2` (configuration not stated), the Potency was “inactive”.
With `Brc1nnc2n1-c1ccccc1Sc1ccccc1-2` the Potency was inconclusive: 11.2 µM [inhibitor, single point].
For `Cc1ccc(NC(=O)Cc2ccccc2Cl)cc1S(=O)(=O)N(C)C`, the Potency was inconclusive: 28.2 µM [inhibitor, single point].
For `CCN1C(=O)c2ccccc2Sc2ccc(NC(=O)c3cccc(C)c3)cc21`, the Potency was inconclusive: 4.47 µM [inhibitor, partial curve].
With `COC(=O)[C@H](CC(C)C)N(Cc1ccccc1)S(=O)(=O)N(Cc1ccc(OC)cc1)[C@@H](CC(C)C)C(=O)OC` the Potency was inconclusive: 5.01 µM [inhibitor, partial curve].
With `CCCC(=O)n1nc(-c2ccc(Cl)cc2)nc1SC` the Potency was “inactive”.
For `Oc1ccc(Nc2nc(-c3cccnc3)cs2)cc1`, the Potency was “inactive”.
In the case of `CCOC(=O)c1cc(C)n(Cc2cccc(OC)c2OC)c1C`, the Potency was active: 3.98 µM.
For `CCOC(=O)Cn1c(-c2cccs2)cc2cc(Cl)ccc21`, the Potency was inconclusive: 11.2 µM [inhibitor, partial curve, poor fit].
`c1ccc(CN2CCN(C(c3ccccc3)c3ccccc3)CC2)cc1` was tested, and the Potency was inconclusive: 17.8 µM [inhibitor, single point].
For `O=C(NC1CCCC1)c1cccc(NC(=O)c2ccco2)c1`, the Potency was “inactive”.
In the case of `O=C(Nc1ccccc1N1CCCCC1)c1cnccn1`, the Potency was inconclusive: 28.2 µM [inhibitor, partial curve, poor fit].
For `COc1ccc(NC(=O)CN(C)C(=O)CCSc2ccc(C)cc2)cc1`, the Potency was inconclusive: 10 µM [inhibitor, partial curve, poor fit].
In the case of `O=C(CCC(=O)N1CCN(c2ccc(F)cc2)CC1)c1ccc(Cl)cc1`, the Potency was inconclusive: 11.2 µM [inhibitor, partial curve, poor fit].
With `C=CCNC(=S)NNC(=O)COc1ccc(Br)cc1` the Potency was “inactive”.
In the case of `CCc1cccc2c(-c3csc(=NC)n3C)c[nH]c12`, the Potency was inconclusive: 20 µM [inhibitor, single point].
In the case of `CCOC(=O)C1CCN(CC(O)COc2ccc(C(C)(C)CC)cc2)CC1` (configuration not stated), the Potency was inconclusive: 17.8 µM [inhibitor, partial curve, poor fit].
In the case of `COc1ccc(C2CC(c3cccc(C)c3)n3ncnc3N2)cc1` (configuration not stated), the Potency was “inactive”.
In the case of `CCCCCCC(O)(c1ccc(OC)cc1)C(CN1CCOCC1)c1ccccc1` (configuration not stated), the Potency was inconclusive: 1 µM [inhibitor, full curve, poor fit].
`Cc1nn2c(-c3ccco3)ccnc2c1-c1ccc(Cl)cc1` was tested, and the Potency was “inactive”.
In the case of `Oc1c(/C=N/Nc2cccc3cccnc23)ccc2ccccc12`, the Potency was “inactive”.
`CCOc1cccc(OCCOc2ccccc2[N+](=O)[O-])c1` was tested, and the Potency was inconclusive: 22.4 µM [inhibitor, single point].
In the case of `Cc1c(C(=O)Nc2nc(-c3ccccn3)cs2)oc2ccccc12`, the Potency was inconclusive: 12.6 µM [inhibitor, single point].
For `CC1=C(C(=O)N2CCOCC2)C(c2c(C)cc(C)cc2C)NC(=S)N1` (configuration not stated), the Potency was inconclusive: 1.78 µM [inhibitor, partial curve, poor fit].
In the case of `Cc1ccc(C(=O)Nc2ccc3oc(-c4cc(Br)ccc4Cl)nc3c2)cc1`, the Potency was “inactive”.
For `COc1cc(OC)c(N(C)C(=O)CSc2c3c(nc4ccc(Cl)cc24)CCCC3)cc1Cl`, the Potency was inconclusive: 28.2 µM [inhibitor, single point].
For `O=C(Nc1cccc(Cl)c1Cl)c1cc(S(=O)(=O)N2CCCc3ccccc32)ccc1F`, the Potency was inconclusive: 22.4 µM [inhibitor, single point].
With `Cc1noc(NS(=O)(=O)c2ccc(NC(=O)Nc3ccc(Cl)c(Cl)c3)cc2)c1C` the Potency was inconclusive: 28.2 µM [inhibitor, single point].
For `CC=Cc1cc(OC)c2c(c1)C(C)C(c1ccc(O)c(OC)c1)O2` (configuration not stated), the Potency was inconclusive: 28.2 µM [inhibitor, single point].
In the case of `Cc1cc(C)n(CC(=O)n2c3c(c4ccccc42)CCCC3)n1`, the Potency was inconclusive: 28.2 µM [inhibitor, single point].
For `Clc1cccc(-n2ncc3c(Nc4ccc5c(c4)OCCO5)ncnc32)c1`, the Potency was inconclusive: 28.2 µM [inhibitor, single point].
With `COC(=O)c1ccc(NC(=S)NC2CC3CCC2C3)cc1` (configuration not stated) the Potency was active: 10 µM.
With `O=C(NC(Cc1ccccc1)c1ccc2c(c1)OCCCO2)c1ccccc1F` (configuration not stated) the Potency was inconclusive: 28.2 µM [inhibitor, single point].
In the case of `CCOC(=O)C1=C(C)NC(=O)C(C(N)=O)C12CCCCC2` (configuration not stated), the Potency was “inactive”.
In the case of `Cc1ccccc1Nc1c(-c2ccncc2)nc2ccc(Br)cn12`, the Potency was inconclusive: 10 µM [inhibitor, single point].
With `Cc1ccc(NC(=O)c2ccc(CNS(=O)(=O)c3ccc4c(c3)C(C)(C)C(=O)N4C)cc2)cc1` the Potency was “inactive”.
In the case of `CN(c1cccc(F)c1)c1cc2c(c3c1ccn3C)C1CCC2O1` (configuration not stated), the Potency was inconclusive: 28.2 µM [inhibitor, single point].
With `C#CCN(C[C@@H]1[C@@H](OC(=O)NC2CC2)[C@@H](OC(=O)NC2CC2)Cn2c(=O)n(CCCCCC)c(=O)n21)S(=O)(=O)c1ccc(C)cc1` the Potency was inconclusive: 11.2 µM [inhibitor, single point].
For `CN(C)CCNC(=O)C(=O)NCC(c1cccnc1)N1CCN(c2ccccc2)CC1` (configuration not stated), the Potency was “inactive”.
